Measurements: ChEMBL document CHEMBL1201862, “PubChem BioAssay data set” (2004)
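All cell lines were grown in 96-well plates and treated with compound for 48 hours. GI50 is the concentration that inhibits growth by half.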 Active and inactive are the calls of the source. Rule as the data show it: active = GI50 up to about 1.1 µM and inactive = higher.

Tested on: NCI-H322M
Assay: NCI-60 cell line screen, 48 h

SMILES	GI50
CNC(=O)C1OC(n2cnc3c(NCc4cccc(I)c4)nc(Cl)nc32)C(O)C1O (stereo not drawn)	inactive: 14.6 µM
CCCn1cnc2c(SCc3ccc(Cl)cc3)nc(N)nc21	inactive: 28.6 µM
C1CNCCN2CCCNCCN(C1)CC2	inactive: > 100 µM
CC(=O)Nc1ccccc1C=C1c2ccccc2-c2ccccc21	inactive: 45.6 µM
CC1OC(OC2C(CO)OC(O[C@H]3CC[C@@]4(C)C(=CC[C@H]5[C@@H]6C[C@@H]7O[C@](O)(CC[C@H](C)COC8OC(CO)C(O)C(O)C8O)[C@@H](C)[C@@H]7[C@@]6(C)CC[C@@H]54)C3)C(OC3OC(C)C(O)C(O)C3O)C2O)C(O)C(O)C1O (stereo partly drawn)	inactive: 4.59 µM
O=[N+]([O-])c1cc(C2ON=C(c3ccccc3)N2C23CC4CC(CC(C4)C2)C3)ccc1Cl (stereo not drawn)	inactive: > 100 µM
CCCCCCCCCCCCCCCCCc1cc(Cl)nc(Cl)n1	inactive: > 100 µM
Cc1c(C(=O)CC(=O)C(=O)Nc2ccc(Cl)c(Cl)c2)[n+]([O-])c2ccccc2[n+]1[O-]	inactive: 22.1 µM
O=C(O)CC12C3C4C5C3C1C5C42 (stereo not drawn)	inactive: > 100 µM
Cc1cc2[nH]c3[nH]c(=O)[nH]c(=O)c3c2cc1C	inactive: > 100 µM
O=C1Oc2ccc([N+](=O)[O-])cc2N/C1=C\C(=O)c1ccccc1	inactive: > 100 µM
O=C(c1ccc2ccccc2c1O)N1CCCCC1	inactive: > 100 µM
Cc1sc(Nc2ccccc2[N+](=O)[O-])c(C#N)c1C	inactive: 14.4 µM
CC(C)C1CN(C(=O)OCc2ccccc2)C2N1C(=O)C2(C)OCc1ccccc1 (stereo not drawn)	inactive: 99.5 µM
CC1=NN(C(=O)CC(=O)Nc2cccc(Cl)c2)C(=O)C1/N=N/c1ccc(C(=O)O)cc1 (stereo not drawn)	inactive: > 100 µM
Cc1oc(N)c(S(=O)(=O)c2cc3ccccc3[n+]([O-])c2N)c1C	inactive: > 100 µM
COc1cccc2c1C(=O)c1c(O)c3c(c(O)c1C2=O)C[C@@](O)(C(C)=O)C[C@@H]3OC1CC(O)C(O)C(C)O1 (stereo partly drawn)	inactive: 4.51 µM
N=C(N)Nc1ncccc1[N+](=O)[O-]	inactive: > 100 µM
CC1(C)Cc2nc3c(cc2C(=O)C1/C=N/C(C#N)=C(\N)C#N)C(=O)C(/C=N/C(C#N)=C(\N)C#N)C(C)(C)C3 (stereo not drawn)	inactive: 3.23 µM
C[C@H](C(=O)C12CC3CC(CC(C3)C1)C2)[C@H](O)c1ccccc1	inactive: 22.9 µM
C=C1C(=O)OC2/C=C(/C)C(OC(C)=O)C/C=C(\C)C(OC(=O)C3(C)OC3C)C(O)C12 (stereo not drawn)	inactive: > 100 µM

SMILES	GI50
C/C(=N\Nc1nc2cc(Cl)ccc2s1)c1ccccn1	active: 0.641 µM
O=C(O)c1ccc(C(O)(c2ccccc2)c2ccccc2)cc1	inactive: > 100 µM
COc1ccc(-c2oc3cc(O)c(OC)c(O)c3c(=O)c2OC2OC(CO)C(O)C(O)C2O)cc1 (stereo not drawn)	inactive: > 100 µM
COC(=O)C1=C(N)C2=C(N)Oc3ccccc3C2CC1=C(C#N)C#N (stereo not drawn)	inactive: 22.5 µM
CCCN(CCCC(NC(C)=O)C(=O)NCc1ccccc1)C(=O)N(C)N=O (stereo not drawn)	inactive: > 100 µM
Cc1c(Br)c(Br)c(C)[s+]1[O-]	inactive: 15 µM
Cc1cc(S(=O)(=O)Nc2nc(Nc3ccccc3)n[nH]2)c(SCC(=O)O)cc1Cl	inactive: > 100 µM
CCOC(=O)C(c1c[nH]c2ccccc12)(c1c[nH]c2ccccc12)c1c[nH]c2ccccc12	inactive: 25.9 µM
C[C@H](NC(=O)n1c2ccccc2c2ccccc21)C(=O)O	inactive: > 100 µM
COC(=O)[C@@H](NC1(c2ccccc2)c2ccccc2-c2ccccc21)[C@@H](C(=O)OC)N(NC(=O)OCc1ccccc1)C(=O)OCc1ccccc1.COC(=O)[C@@H](NC1(c2ccccc2)c2ccccc2-c2ccccc21)[C@H](C(=O)OC)N(NC(=O)OCc1ccccc1)C(=O)OCc1ccccc1	inactive: > 100 µM
CCCCNC(=O)c1cc(S(=O)(=O)n2ccnc2O)c(SC)cc1Cl	inactive: > 100 µM
O=C1/C(=C/c2ccc(Cl)cc2)N=C(c2ccccc2)N1c1ccc(S(=O)(=O)Nc2nccs2)cc1	inactive: 45.5 µM
Cc1ccc(S(=O)(=O)NC(=O)C2(Br)S(=O)(=O)OCCOS2(=O)=O)cc1	inactive: > 100 µM
NC(=O)C(Nc1c(Cl)cccc1Cl)c1cc2cc(Br)ccc2nc1Cl (stereo not drawn)	inactive: > 100 µM
COCN(C)c1nc(N(C)C)nc(N(C)C)n1	inactive: > 100 µM
CN(C)CCCN1CCC2(CCC(C(C)(C)C)CC2)CC1	inactive: 2.05 µM
O=S1(=O)N=C(SCc2c[nH]c3ccccc23)N(c2ccccc2)c2ccncc21	inactive: > 100 µM
COC(=O)C(Cc1nc2ccccc2nc1O)C(NO)C(=O)Nc1c(Cl)cc([N+](=O)[O-])cc1Cl (stereo not drawn)	inactive: 46.2 µM
CC(=O)[C@]1(O)Cc2c(O)c3c(c(O)c2[C@@H](OC2CC(N)C(O)C(C)O2)C1)C(=O)c1c(OCc2ccccc2)cccc1C3=O (stereo partly drawn)	inactive: 2.27 µM
CCOC(=O)c1cc(Br)c(-c2cc(C)no2)[nH]1	inactive: 61.1 µM
O=C(CC1(O)C(=O)Nc2c(Cl)cc(Cl)cc21)c1cccc([N+](=O)[O-])c1 (stereo not drawn)	inactive: 57.9 µM

SMILES	GI50
Cc1ccc2c(c1)C(C1Cc3c(C)cccc3C1=O)OC2=O (stereo not drawn)	inactive: 23 µM
O=C(CC(O)(C(F)(F)F)C(F)(F)F)C(c1ccccc1)C(O)(C(F)(F)F)C(F)(F)F (stereo not drawn)	inactive: 7.03 µM
CC(=O)Nc1cc2c3c(c1)CCCN3CCC2	inactive: > 100 µM
NCCCn1c(Cl)nc2ccccc21	inactive: > 100 µM
CCn1c(=O)c2c3cc(OC(C)=O)ccc3oc2c2ccc(OC(C)=O)cc21	inactive: 36.4 µM
O=C1C2=C(c3ccccc31)C(c1ccccc1Cl)N1C(=O)CSC1=N2 (stereo not drawn)	inactive: > 100 µM
O=C1c2ccccc2N1C(=O)c1ccccc1[N+](=O)[O-]	inactive: > 10 µM
CCCCOC(=O)C(=O)C(CC(CC)C(=O)c1ccccc1)C(=O)C=C(C)C (stereo not drawn)	inactive: > 100 µM
CCCCNC(=O)C1C(=O)N(CCCC)C(=O)/C1=N\N (stereo not drawn)	inactive: > 100 µM
O=C(/C=C/c1ccc(Cl)cc1)c1ccc(Cl)c(Cl)c1	inactive: 57.7 µM
O=C1CCC2(CCO1)OCCO2	inactive: > 100 µM
COc1ccc2c(c1)C1=NCCN(CCO)c3ccc([N+](=O)[O-])c(c31)N2	active: 0.51 µM
CN(Cc1cnc2nc(N)nc(N)c2n1)c1ccc(C(=O)NC23CC4CC(CC(C4)C2)C3)cc1	inactive: 13.1 µM
CC(=O)OCC1OC(n2c3c(c(-c4ccco4)c(C#N)c2=S)CCCC3)C(OC(C)=O)C(OC(C)=O)C1OC(C)=O (stereo not drawn)	inactive: > 100 µM
O=c1c2c3c(sc2nc2n1N=CN(c1ccccc1)C2)CCCC3	inactive: > 100 µM
[N-]=[N+]=Nc1cc(=O)n2c3c(cccc13)CCC2	inactive: > 100 µM
O=C(CN1CCN(c2ccccc2)CC1)N1CCc2c([nH]c3ccccc23)C1c1cccnc1 (stereo not drawn)	inactive: 69.3 µM
CCN(CC)C(=S)SS(=O)(=O)c1ccccc1[N+](=O)[O-]	inactive: > 100 µM
O=C1C=CC(=O)c2ncccc21	inactive: 9.68 µM
COc1ccc(Cc2ccc3nc(O)cc(C)c3c2)cc1S(=O)(=O)O	inactive: > 100 µM
CCc1ccc(NCc2cc(OC)c(OC)c(OC)c2)cc1	inactive: 3.04 µM
